Experimental data published in the supplement of paper PMC10338343.
± gives the standard deviation. This is a selection; strong and weak results do not stand in their true shares.

System: MIWI (PIWIL1) piRISC loaded with piRNA #1 (30 nt)
Assay: pre-steady-state target cleavage rate (min^-1); MIWI and MILI are mouse PIWI proteins and EfPiwi is from a freshwater sponge; tags in brackets are library labels; higher = faster piRNA-guided slicing of the target
Settings: guide: piRNA #1 5'p-UGAGGUAGUAGGUUGUAUAGUAUCCAGAGG; auxiliary factor: 500 nM mouse GTSF1
Method in brief: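 Cleave-'n-Seq measured uncleaved targets by sequencing after a transcribed, DNA-blocked target RNA library […] was mixed with 1 nM active affinity-purified piRISC holding one synthetic guide, with or without 500 nM GTSF1 partner protein, at 33 °C in HEPES–potassium acetate buffer for 0–8 or 0–960 min. Counts were normalised to depth and to weakly complementary targets, three trials were pooled, and k3 was capped at 0.0001 min^-1. A burst-and-steady-state fit gave the pre-steady-state cleavage rate.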
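Note: 1 nM active piRISC with 0.1 nM target library at 33 °C single turnover.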

Row | Sequence | pre-steady-state target cleavage rate
1 | GGUCUGGAUACUAUACAAGCUACUACGUCA | 0.986 ± 0.046
2 | GGAGAGGAUACUAUACAACCUACCUACCUCA | 1.05 ± 0.059
3 | GGAGACGUUACUAUACAUCCUACUACCUCA | 1.35 ± 0.092
4 | GGAGACGAUACUAUACAUCCUACUAGCUCA | 0.608 ± 0.046
5 | GGACUGGAUACUAUACAACCUACUAUCCUCA | 0.442 ± 0.043
6 | GCUCAGGAUACUAUACAACCUAGUACCUCA | 0.489 ± 0.043
7 | GGACUGGAUACUAAACAAGCUACUACCUCA | 1.06 ± 0.072
8 | GGAGACGAUAGCUAUACAACCUACUACCUCA | 0.785 ± 0.061
9 | GGACUGGAUACUUUACUACCUACUACCUCA | 1.01 ± 0.11
10 | GGACUGGAUGACUAUACAACCUACUACCUCA | 1.29 ± 0.14
11 | GGAGACCUAUGAUAUGUUCCUACUUGGAGA [g7:g12:cont:t1A] | < 0.0001
12 | GGAGAGGAUAACUAUACAACCUACUACCUCA | 0.887 ± 0.054
13 | GGACUGGAUUCUAUACAACCUUCUACCUCA | 0.697 ± 0.044
14 | GGAGAGGAUACUGUACAACCUACUACCUCA | 0.682 ± 0.041
15 | GGAGAGGUUACUAUACAACCUACAACCUCA | 0.405 ± 0.056
16 | GGAGACCUAUCUAUACAACCUACUACUCUCA | 0.723 ± 0.056
17 | CCUCUGGAUACUAUACAAACCUACUACCUCA | 0.0394 ± 0.011
18 | GGUCUGGAUACUAUACUACCUACUUCCUCA | 0.155 ± 0.029
19 | GGAGACCUAUCUAUAGAACCUACUACGUCA | 0.342 ± 0.05
20 | GGAGACGAUACUAUACAACCUACAACCACA | 0.699 ± 0.18

Row | Sequence | pre-steady-state target cleavage rate
21 | GGUCUCGAUACUAUACAACCUACUACCUGA | 0.78 ± 0.12
22 | GGAGACCUUACUAUACAACCUAGUACCUGA | 0.00911 ± 0.005
23 | GGAGACCUUACUAUUCUACCUACUACCUCA | 0.0666 ± 0.0083
24 | GGAGUGGAUACUAUACAACCUACUACCAUCA | 0.269 ± 0.036
25 | CGUCUGGAUACUAUACUACCUACUACCUCA | 1.55 ± 0.09
26 | GCUCUGGAUACUAUACAGCCUACUACCUCA | 0.729 ± 0.03
27 | GCUCUCGAUACUAUACAAGCUACUACCUCA | 1.29 ± 0.062
28 | GGACUGGUUACUAUACAAGCUACUACCUCA | 0.962 ± 0.081
29 | GGAGUGGAUACAAAACAACCUACUACCUCA | 0.78 ± 0.089
30 | GGAGACCUAUGAUAUGUUCCUGCUACCUCA | < 0.0001
31 | GGAGUGCAUACUAUACAACCUACUACCUCA | 1.66 ± 0.1
32 | GGUCUGGAUACUAUACAAUCUACUACCUCA | 0.466 ± 0.021
33 | GGAGACCUAUGUAUACAACCUAGAUGGAGA [g9:g19:cont:t1A] | < 0.0001
34 | GGAGACGAUACUAUACAACGAACUACCUCA | 0.023 ± 0.0031
35 | GGAGACCUAUGAUAUCAAGCUACAACCUCA | < 0.0001
36 | GGAGACCUAACUAUACAACCUACCUACCUCA | 0.458 ± 0.04
37 | GCUCUGGAUACUAUACAACCUACUACCUACA | 1.87 ± 0.13
38 | GGAGUGGAUACUAUACAACCAACUACCUGA | 0.0492 ± 0.0085
39 | GCUCUGGAUACAAUACAACCUACUUCCUCA | 0.575 ± 0.035
40 | GCUCUGGAUACUAUACAACCUACUUGGAGA [g7:g29:cont:t1A] | 0.0788 ± 0.02
